Measured values reported in PubChem BioAssay (NCATS).
Inconclusive means that the source gave no clear call. Such entries were picked first, then a sample of the others. For some assays here: Potencies beside an inconclusive call are fits to weak or partial responses and may not hold up. The source made the active and inactive calls. Calls follow the shape of the dose curve; as a rule, active = well fitted curve in the direction sought with a large enough effect; inconclusive = small, poorly fitted or top-dose-only effect, or another doubt; inactive = no such curve, though single readings can be large; an effect the other way counts as inactive or inconclusive.

Experiments:
[1] = NS1 protein of Zika virus - qHTS assay to identify small molecule inhibitors in human HEK 293 cells (AID 1347053); also: nearly all actives have a fitted effect of over 55% in size; also: potency is read from the fitted curve at half-maximal effect
Summary of the method: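 In this cell-based screen, HEK 293 cultures received compound for one hour before Zika MR766 at MOI = 0.5. NS1 was quantified 24 hours later by TR-FRET, normalized to virus-free wells and infected wells.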

[2] = qHTS of pediatric cancer cell lines to identify multiple opportunities for drug repurposing: Primary screen for TC32 cells (AID 1347089); also: nearly all actives have a fitted effect of over 60% in size; also: potency is read from the fitted curve at half-maximal effect
Summary of the method: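 qHTS, TC32, 48 h drug treatment, CellTiter-Glo luminescence as a proxy for metabolically active cells; primary top concentration 46 µM (MIPE 11-pt, NPC 8-pt); confirmatory 11-pt.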

[3] = qHTS of pediatric cancer cell lines to identify multiple opportunities for drug repurposing: Primary screen for NB-EBc1 cells (AID 1347095); also: potency is read from the fitted curve at half-maximal effect
Summary of the method: (§1)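 Plated cells (500-1,000 per well, growth media) were allowed to settle for 5 hours, treated with compound dilutions for 48 hours, then lysed with CellTiter-Glo for 15 min at room temperature before luminescence reading.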

[4] = qHTS of pediatric cancer cell lines to identify multiple opportunities for drug repurposing: Primary screen for U-2 OS cells (AID 1347096); also: nearly all actives have a fitted effect of over 50% in size; also: potency is read from the fitted curve at half-maximal effect
Summary of the method: (§2)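 Cells (500-1,000/well) rested 5 h, then received compounds for 48 h; metabolically active cells were measured by CellTiter-Glo luminescence. Final concentrations spanned up to 46 µM (MIPE, 11-point) or 0.59 nM-46 µM (NPC, 8-point) in primary screens, 11-point in follow-ups.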

[5] = qHTS of pediatric cancer cell lines to identify multiple opportunities for drug repurposing: Primary screen for SK-N-SH cells (AID 1347098); also: nearly all actives have a fitted effect of over 65% in size; also: potency is read from the fitted curve at half-maximal effect;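 as to activity change, negative = cytotoxic: DMSO served as neutral control and bortezomib at 2.3 µM as positive control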
Summary of the method: as §2

MCC-26 = assay: qHTS assay to identify novel small-molecules to repurpose for Merkel cell carcinoma treatment (AID 1296009); settings: MCC and control cell lines, CellTiter-Glo viability, 72 h; activity change, negative = cytotoxicity: at 46 µM (top of the series); also: nearly all actives have a fitted effect of over 60% in size; also: potency is read from the fitted curve at half-maximal effect
Summary of the method: (§3)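 Cell viability measured by CellTiter-Glo following 72 hr compound treatment at 37 degree celsius, with NPC and MIPE libraries tested in 8- and 11-point concentration series.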

[6] = qHTS of pediatric cancer cell lines to identify multiple opportunities for drug repurposing: Primary screen for MG 63 (6-TG R) cells (AID 1347105); settings: MG 63 (6-TG R) viability, CellTiter-Glo, 48 h; activity change, negative = cytotoxic: at 46 µM (top of the series); also: nearly all actives have a fitted effect of over 50% in size; also: potency is read from the fitted curve at half-maximal effect
Summary of the method: as §1

[7] = Quantitative High-Throughput drug screen in 47 multiple myeloma cell lines against the NCATS MIPE library collection: EJM_DSMZ cell viability assay (AID 1918926; also: nearly all actives have a fitted effect of over 30% in size; also: potency is read from the fitted curve at half-maximal effect)
Summary of the method: (§4)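 qHTS of the MIPE 4.0 collection: 500 myeloma cells/well, 48 h drug exposure at 37C in 5% CO2, then CellTiter-Glo for 5 min at room temperature before luminescence reading.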

[8] = Quantitative High-Throughput drug screen in 47 multiple myeloma cell lines against the NCATS MIPE library collection: ARD_JJKsccE7 cell viability assay (AID 1918929; also: potency is read from the fitted curve at half-maximal effect); settings: ARD myeloma cell line viability, CellTiter-Glo, 48 h; viability: at 45.8 µM (top of the series)
Summary of the method: as §4

[9] = Quantitative High-Throughput drug screen in 47 multiple myeloma cell lines against the NCATS MIPE library collection: KMS27_JCRB cell viability assay (AID 1918970); settings: KMS27 myeloma cells, CellTiter-Glo ATP viability, 48 h; viability (% of DMSO): at 45.8 µM (top of the series); also: nearly all actives have a fitted effect of over 30% in size; also: potency is read from the fitted curve at half-maximal effect
Summary of the method: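 ATP-based viability (CellTiter-Glo luminescence) is measured in cells treated 48 h with approved and investigational drugs at 37 °C. Controls are DMSO-only wells for full viability and media-only wells for none.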

[10] = Quantitative High-Throughput drug screen in 47 multiple myeloma cell lines against the NCATS MIPE library collection: KMS12PE_JCRB cell viability assay (AID 1918972); also: nearly all actives have a fitted effect of over 30% in size; also: potency is read from the fitted curve at half-maximal effect
Summary of the method: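 Inhibition of cell viability is measured here. Each line was plated at 500 cells per well, treated with MIPE 4.0 drugs, kept 48 hours at 37C, then assayed for ATP content by CellTiter-Glo luminescence.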

[11] = Quantitative High-Throughput drug screen in 47 multiple myeloma cell lines against the NCATS MIPE library collection: KMS20_JCRB cell viability assay (AID 1918973); settings: CellTiter-Glo ATP, 48 h; viability (% of DMSO): at 45.8 µM (top of the series); also: potency is read from the fitted curve at half-maximal effect; nearly all actives have a fitted effect of over 45% in size
Summary of the method: as §4

[12] = Quantitative High-Throughput drug screen in 47 multiple myeloma cell lines against the NCATS MIPE library collection: MOLP8_DSMZ cell viability assay (AID 1918977); also: nearly all actives have a fitted effect of over 45% in size; also: potency is read from the fitted curve at half-maximal effect
Summary of the method: (§5)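 ATP-based luminescence (CellTiter-Glo, 5 min RT incubation) quantified surviving cells following two days' treatment with MIPE 4.0 agents at 37 °C, 5% CO2.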

[13] = Quantitative High-Throughput drug screen in 47 multiple myeloma cell lines against the NCATS MIPE library collection: OCIMY1_PLB cell viability assay (AID 1918979); also: nearly all actives have a fitted effect of over 35% in size; also: potency is read from the fitted curve at half-maximal effect
Summary of the method: as §5

[14] = Quantitative High-Throughput drug screen in 47 multiple myeloma cell lines against the NCATS MIPE library collection: UTMC2_PLB cell viability assay (AID 1919868); settings: CellTiter-Glo ATP luminescence, 48 h; series mostly up to 45.8 µM; also: nearly all actives have a fitted effect of over 55% in size; also: potency is read from the fitted curve at half-maximal effect
Summary of the method: as §5

MKL-1 = assay: qHTS assay to identify novel small-molecules to repurpose for Merkel cell carcinoma treatment (AID 1296009); settings: MCC and control cell lines, CellTiter-Glo viability, 72 h; activity change, negative = cytotoxicity: at 46 µM (top of the series); also: nearly all actives have a fitted effect of over 60% in size; also: potency is read from the fitted curve at half-maximal effect
Summary of the method: as §3

[15] = Quantitative High-Throughput drug screen in 47 multiple myeloma cell lines against the NCATS MIPE library collection: KHM11_PLB cell viability assay (AID 1918962); settings: KHM11 myeloma cell viability, CellTiter-Glo ATP luminescence, 48 h; series mostly up to 45.8 µM; also: potency is read from the fitted curve at half-maximal effect; nearly all actives have a fitted effect of over 35% in size
Summary of the method: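 Approved and investigational drugs from MIPE 4.0 were added by pin tool to 500 cells per well. After 48 hours at 37C, ATP-based CellTiter-Glo luminescence indicated remaining viability.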

[16] = Quantitative High-Throughput drug screen in 47 multiple myeloma cell lines against the NCATS MIPE library collection: OCIMY5_PLB cell viability assay (AID 1918988); also: nearly all actives have a fitted effect of over 65% in size; also: potency is read from the fitted curve at half-maximal effect
Summary of the method: as §5

[17] = qHTS of pediatric cancer cell lines to identify multiple opportunities for drug repurposing: Primary screen for Rh30 cells (AID 1347107); also: nearly all actives have a fitted effect of over 75% in size
Summary of the method: as §2

Measured: Potency
Tags tell the direction and shape of the fitted curve.

OC1(c2ccc(Cl)c(C(F)(F)F)c2)CCN(CCCC(c2ccc(F)cc2)c2ccc(F)cc2)CC1
inconclusive: [1] 35.5 µM [inhibitor, single point] | [3] 23.7 µM [cytotoxic, single point] | MCC-26 = 26.6 µM [inhibitor, single point]
active: [2] 16.7 µM | [4] 21.1 µM | [5] 24.4 µM

COC(=O)Nc1nc2ccc(C(=O)c3ccc(F)cc3)cc2[nH]1
active: [6] 0.59 µM | [8] 0.332 µM | [12] 0.418 µM | [13] 0.662 µM
inactive: [2] | [4]
inconclusive: [1] 0.743 µM [inhibitor, full curve, poor fit] | [5] 0.764 µM [cytotoxic, full curve] | [7] 2.96 µM [cytotoxic, partial curve] | [9] 0.166 µM [cytotoxic, full curve] | [10] 0.296 µM [cytotoxic, full curve] | [11] 0.372 µM [cytotoxic, full curve, poor fit] | [14] 0.418 µM [cytotoxic, full curve, poor fit] | MCC-26 = 0.235 µM [inhibitor, full curve] | MKL-1 = 1.48 µM [inhibitor, full curve]

C[C@@H]1CN(c2c(F)c(N)c3c(=O)c(C(=O)O)cn(C4CC4)c3c2F)C[C@H](C)N1
inactive: [5] | [7] | [10] | [12] | [14]
inconclusive: [8] 0.0006 µM | [15] 0.0032 µM [rising, full curve, poor fit] | [9] 0.0323 µM [cytotoxic, full curve, poor fit] | [11] 0.0072 µM [rising, full curve, poor fit] | [13] 12.9 µM [rising, single point] | [16] 0.812 µM [rising, full curve, poor fit]

CN1CCN(c2c(F)cc3c(=O)c(C(=O)O)cn4c3c2OCN4C)CC1
inactive: [6] | [9] | [10] | [12] | [13] | [16] | [14]
inconclusive: [5] 21.5 µM [cytotoxic, partial curve] | [15] 0.001 µM [cytotoxic] | [11] 0.003 µM [cytotoxic, full curve, poor fit]

CN(C)CCc1c[nH]c2ccc(CS(=O)(=O)N3CCCC3)cc12
active: [15] 16.6 µM | [9] 23.5 µM
inactive: [1] | [7] | [16] | MKL-1
inconclusive: [5] 27.1 µM [cytotoxic, partial curve] | [8] 33.2 µM [cytotoxic, single point] | [10] 18.7 µM [cytotoxic, partial curve, poor fit] | [11] 37.2 µM [cytotoxic, single point] | [12] 0.0037 µM [cytotoxic, full curve, poor fit] | [14] 0.0019 µM [rising, full curve, poor fit]

NC1(Cc2ccc(Cl)cc2)CCN(c2ncnc3[nH]ccc23)CC1
active: [9] 4.69 µM | [10] 3.72 µM | [11] 3.32 µM | [12] 8.33 µM
inconclusive: [1] 37.2 µM [inhibitor, single point] | [2] 16.5 µM [cytotoxic, partial curve] | [4] 18.7 µM [cytotoxic, single point] | [7] 16.6 µM [cytotoxic, partial curve] | [13] 18.7 µM [cytotoxic, partial curve] | MKL-1 = 18.7 µM [inhibitor, partial curve]

CCCNC(=O)NS(=O)(=O)c1ccc(Cl)cc1
inactive: [17]
